Over roughly 33,000 sequences, “E-score (-0.5 to 0.5)” has its median near -0.035; the highest 2% begin near 0.35. The list shows a part of the results.
Target: T1, Pdr3 (UniProt P33200)
T1 sequence: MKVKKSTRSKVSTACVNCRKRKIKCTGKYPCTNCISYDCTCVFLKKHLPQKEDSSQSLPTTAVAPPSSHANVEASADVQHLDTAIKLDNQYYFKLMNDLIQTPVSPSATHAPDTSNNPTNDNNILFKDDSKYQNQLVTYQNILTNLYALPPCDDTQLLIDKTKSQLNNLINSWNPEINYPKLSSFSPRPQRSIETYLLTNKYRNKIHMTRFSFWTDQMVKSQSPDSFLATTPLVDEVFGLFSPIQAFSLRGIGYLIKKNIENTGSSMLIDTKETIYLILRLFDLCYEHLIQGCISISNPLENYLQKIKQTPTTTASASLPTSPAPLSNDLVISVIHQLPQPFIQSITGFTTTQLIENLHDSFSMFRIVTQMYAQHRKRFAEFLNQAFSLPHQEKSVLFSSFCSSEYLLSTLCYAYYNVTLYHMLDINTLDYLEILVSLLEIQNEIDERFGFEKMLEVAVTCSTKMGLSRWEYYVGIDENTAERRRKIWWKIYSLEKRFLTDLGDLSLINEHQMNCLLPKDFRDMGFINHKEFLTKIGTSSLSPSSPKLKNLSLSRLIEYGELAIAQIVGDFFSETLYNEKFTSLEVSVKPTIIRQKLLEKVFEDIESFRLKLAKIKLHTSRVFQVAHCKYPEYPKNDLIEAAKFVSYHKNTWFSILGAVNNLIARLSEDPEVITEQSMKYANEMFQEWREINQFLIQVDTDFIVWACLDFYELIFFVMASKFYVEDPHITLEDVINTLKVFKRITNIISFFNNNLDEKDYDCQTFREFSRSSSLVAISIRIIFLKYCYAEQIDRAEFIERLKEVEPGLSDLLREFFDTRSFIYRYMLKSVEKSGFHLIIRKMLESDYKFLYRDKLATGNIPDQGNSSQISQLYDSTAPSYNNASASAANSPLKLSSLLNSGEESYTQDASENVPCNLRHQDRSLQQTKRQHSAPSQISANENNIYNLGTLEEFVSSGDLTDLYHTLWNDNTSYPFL
Assay: PBM E-score (8-mer binding enrichment) (E-score (-0.5 to 0.5)); higher = stronger / more preferred TF binding; most listed sequences are background and not binding sites
Settings: protein concentration: 200 nM; construct: GST-full length
Summary of the method: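 Yeast transcription factors, full-length or as DNA-binding domains, were expressed with a GST tag using PURExpress in vitro transcription/translation. At about 100-200 nM they were applied to universal all-10-mer Agilent arrays, double-stranded by primer extension on fresh or once-stripped slides. Fluorescent anti-GST detected bound protein, and masliner normalised the scans. E-scores for ungapped eight-base words, pooled with reverse complements, came from the Universal PBM Analysis Suite.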

| Sequence | PBM E-score |
| --- | --- |
| GTCACCGA | -0.0164 |
| CTCCCCAA | -0.0194 |
| AATTATTA | 0.109 |
| CTCCTCAA | -0.152 |
| CGCTAGCC | -0.0348 |
| GTTCCCAA | -0.0438 |
| CCGATATA | 0.117 |
| ACGTCTAA | -0.159 |
| CCTTTTCG | -0.0249 |
| ATCTAAAG | -0.0798 |
| CCGTTCAG | 0.246 |
| AGTTGCCG | 0.196 |
| CTTAGGCC | -0.139 |
| CACGGTAA | 0.0607 |
| GGTCTAGA | -0.229 |
| CATTACGG | 0.0441 |
| GCGCATAC | 0.0925 |
| CGCAACAC | 0.0854 |
| GCGCAACC | 0.105 |
| TAACGCAA | -0.0826 |
| CCGCGTAG | 0.167 |
| GCTAAGCC | -0.0307 |
| GTGCCATA | -0.257 |
| GATGATGC | -0.119 |
| CCGTCCAG | 0.13 |

| Sequence | PBM E-score |
| --- | --- |
| AAGAGTGG | -0.0761 |
| GATCCCCC | -0.0962 |
| GGAACCAA | 0.285 |
| GGATACTA | 0.184 |
| ACACAGGC | -0.124 |
| GAACGTTA | -0.0724 |
| GCGAGGAC | -0.162 |
| CGACGGAA | 0.439 |
| GTCACAAC | -0.0622 |
| AGTTCATA | 0.00136 |
| CTTGCTTC | -0.209 |
| AAGCACCG | -0.0946 |
| ATAGGGAT | -0.0476 |
| CACTGGAC | 0.026 |
| GCGCCTGA | 0.0747 |
| AACGCGCG | 0.243 |
| CTCCGGAC | 0.382 |
| ACCGAGGC | -0.103 |
| GACGGTCA | -0.172 |
| GGTCTCGA | 0.0878 |
| ATGGAAAT | 0.139 |
| GGCAGCGA | -0.0426 |
| GGGATACA | 0.13 |
| CCCCTAGA | -0.274 |
| AGAAATCA | 0.0654 |

| Sequence | PBM E-score |
| --- | --- |
| CCACACAC | 0.127 |
| CGAGCAAA | 0.00301 |
| AAACCGCG | 0.352 |
| CCGAGATA | 0.241 |
| GGCCAGAA | 0.104 |
| CGCTTCGA | 0.121 |
| CAGACGAA | 0.199 |
| ACAACAAA | -0.0617 |
| CCTCGGCA | 0.238 |
| CTCTGGAA | -0.135 |
| ACTACTTA | -0.139 |
| TCCCGGGA | 0.485 |
| CAACGGCA | 0.0569 |
| GGCAGTTA | -0.172 |
| GATCGCAA | 0.0222 |
| GCCACGTA | -0.208 |
| GGGAAATA | 0.0401 |
| CTATCTGC | -0.0009 |
| CCCGCAGC | 0.199 |
| GACAGATA | 0.111 |
| GTCATTAA | -0.00633 |
| CAGCTACG | -0.159 |
| CATGCTTC | 0.0358 |
| CGCGGTCC | 0.384 |
| AAATGAAC | -0.143 |

| Sequence | PBM E-score |
| --- | --- |
| GTTGGTTA | -0.135 |
| AGTCTTAT | -0.0984 |
| AGTTTACG | -0.0637 |
| CTACGCAA | -0.301 |
| CCTAGCAG | -0.186 |
| TAGAAAAA | -0.152 |
| AACTATGA | -0.12 |
| GAACGTCC | 0.135 |
| CCATCGAC | -0.0202 |
| ATGGTAAC | -0.0555 |
| AGGATAAC | -0.212 |
| ATCGATAC | -0.0585 |
| AGGCCATA | -0.0791 |
| ACTTAGTG | -0.161 |
| AGTGATGG | -0.148 |
| CACCTGGG | -0.221 |
| AGCCACGA | 0.0342 |
| GTCTGCAA | -0.211 |
| AGGGGATC | -0.0528 |
| ATTGTCAG | -0.0506 |
| AGCGACCC | 0.161 |
| AGATAAGG | -0.11 |
| AGGTATAT | -0.152 |
| ACAAGCCT | -0.228 |
| TAGTGACA | -0.049 |

| Sequence | PBM E-score |
| --- | --- |
| GGTAGCTA | -0.256 |
| GAGAGACA | -0.179 |
| CGTAATCC | 0.148 |
| ACTGTACC | -0.0171 |
| AGCCGCAG | -0.0155 |
| AAGCATTC | -0.125 |
| ATTCCGAG | 0.449 |
| CGGGGACC | 0.291 |
| CTAAGGAC | -0.108 |
| TTAAGTAA | -0.0351 |
| ATTTATGC | -0.111 |
| GACAAAAC | 0.102 |
| ACGCTTAG | -0.289 |
| AGACTACA | -0.17 |
| AATCGTCT | -0.127 |
| CAGGTTCG | 0.0766 |
| AGTGTATG | -0.0614 |
| AGGCGTCA | -0.248 |
| CTAAGGTA | -0.0153 |
| ACTTGTCC | 0.136 |
| ATTAGCGA | -0.019 |
| ATTACATC | 0.0367 |
| CGGAGGCC | 0.233 |
| CACTGGCA | -0.0479 |
| CCAGCTCG | -0.00527 |

| Sequence | PBM E-score |
| --- | --- |
| TCATACAA | 0.00912 |
| ATATTCTG | -0.0624 |
| CTATTGAA | -0.0299 |
| AATACGTC | 0.19 |
| CTTACGCA | -0.246 |
| CACGAAGA | -0.0569 |
| ATGTCATC | 0.0018 |
| CAACAGCC | -0.0211 |
| CCGGTACA | 0.217 |
| AGTGCCAG | -0.125 |
| ACGTAGTA | -0.0216 |
| ACGGGCGA | 0.117 |
| ACTGATGG | -0.188 |
| ACAGGTGC | -0.166 |
| ATCTTCAA | -0.112 |
| AATATGAG | -0.1 |
| AAGGAATG | 0.126 |
| GACGAATA | 0.164 |
| CGTACAGA | -0.161 |
| AGGGCATG | -0.169 |
| AGCCTACA | -0.165 |
| ACCGTGAA | 0.162 |
| GGGCCTGA | -0.139 |
| CACTCGCC | 0.0754 |
| ACACGCTC | 0.122 |

| Sequence | PBM E-score |
| --- | --- |
| GGGGCGCA | -0.0944 |
| ATCTAGCC | -0.0811 |
| ACATTGAA | -0.0293 |
| CAGACTCG | -0.18 |
| ACCTCAGC | -0.0623 |
| CTTGCCGA | -0.0614 |
| ATTAGCTC | -0.132 |
| CCGCACCG | 0.255 |
| ATAACCTA | -0.162 |
| ACGGATAA | 0.375 |
| CCACTTCC | 0.136 |
| AGTTTGAC | -0.0271 |
| ATCAAGAC | -0.0503 |
| GAAACACA | 0.019 |
| GACCCATC | 0.138 |
| CGCGGAAA | 0.476 |
| CAGCGACA | -0.199 |
| CTGCTGCA | 0.0101 |
| CGCAGAAC | 0.112 |
| CATTTCGG | 0.049 |
| TCCTCGCA | -0.0258 |
| CAAAGATG | 0.016 |

Source: the supplement of paper PMC3334620
